According to the supplement of paper PMC4604168 (melanoma cell lines):
The other results are listed elsewhere or left out. Many values rest on one well or one pass, so single values are uncertain.

Each compound was assayed on WM1716 (assay: cell count relative to DMSO control; melanoma cells; higher = more viable cells). Details: library dose: standard library concentration; 72 h; first compound 2 µM.
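Note: cells treated in 1,536-well plates, then fixed and DAPI-stained, with nuclei counted from automated high-throughput microscope images.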

| SMILES | cell count [%] |
| --- | --- |
| C[C@@H](N)c1ccc(C(=O)Nc2ccnc3[nH]ccc23)cc1 + CCCCCCCCc1ccc(CCC(N)(CO)CO)cc1 [fingolimod] (partner dose 10 µM) | 30.2 |
| Cn1sc(=O)n(Cc2ccccc2)c1=O + C[C@]1(O)C[C@@H](c2nc(-c3ccc4ccc(-c5ccccc5)nc4c3)c3c(N)nccn32)C1 [OSI906] (partner dose 2 µM) | 109 |
| Cn1sc(=O)n(Cc2ccccc2)c1=O + NC(=O)c1ccc(N(C(N)=O)c2c(F)cccc2F)nc1-c1ccc(F)cc1F [VX702] (partner dose 2 µM) | 98.6 |
| C[C@@H](N)c1ccc(C(=O)Nc2ccnc3[nH]ccc23)cc1 + Cn1cnc2c(F)c(Nc3ccc(Br)cc3Cl)c(C(=O)NOCCO)cc21 [selumetinib] (partner dose 0.075 µM) | 56.6 |
| CCCCCCCCCCCCCCCCCCOP(=O)([O-])OC1CC[N+](C)(C)CC1 [Perifosine] + CC(C)C[C@H](NC(=O)[C@H](Cc1ccccc1)NC(=O)c1cnccn1)B(O)O [Bortezomib] (partner dose 0.005 µM) | 17.6 |
| C[C@@H](N)c1ccc(C(=O)Nc2ccnc3[nH]ccc23)cc1 + CNC(=O)c1cc(Oc2ccc(NC(=O)Nc3ccc(Cl)c(C(F)(F)F)c3)cc2)ccn1 [sorafenib] (partner dose 2 µM) | 70.4 |
| CCCCCCCCCCCCCCCCCCOP(=O)([O-])OC1CC[N+](C)(C)CC1 [Perifosine] + C[C@]1(O)C[C@@H](c2nc(-c3ccc4ccc(-c5ccccc5)nc4c3)c3c(N)nccn32)C1 [OSI906] (partner dose 2 µM) | 92.4 |
| CCCCCCCCCCCCCCCCCCOP(=O)([O-])OC1CC[N+](C)(C)CC1 [Perifosine] + NC1(c2ccc(-c3nc4ccn5c(=O)[nH]nc5c4cc3-c3ccccc3)cc2)CCC1 [MK2206] (partner dose 2 µM) | 79.7 |
| CCCCCCCCCCCCCCCCCCOP(=O)([O-])OC1CC[N+](C)(C)CC1 [Perifosine] + O=c1[nH]nc(Sc2ncc([N+](=O)[O-])s2)n1-c1ccc2c(c1)OCCO2 [BI78D3] (partner dose 1 µM) | 107 |
| C[C@@H](N)c1ccc(C(=O)Nc2ccnc3[nH]ccc23)cc1 + NC1(c2ccc(-c3nc4ccn5c(=O)[nH]nc5c4cc3-c3ccccc3)cc2)CCC1 [MK2206] (partner dose 2 µM) | 54.2 |
| CCCCCCCCCCCCCCCCCCOP(=O)([O-])OC1CC[N+](C)(C)CC1 [Perifosine] + Cc1cn(-c2cc(NC(=O)c3ccc(C)c(Nc4nccc(-c5cccnc5)n4)c3)cc(C(F)(F)F)c2)cn1 [nilotinib] (partner dose 1 µM) | 124 |
| Cn1sc(=O)n(Cc2ccccc2)c1=O + CN(c1ncccc1CNc1nc(Nc2ccc3c(c2)CC(=O)N3)ncc1C(F)(F)F)S(C)(=O)=O [PF562271] (partner dose 0.4 µM) | 83.9 |
| C[C@@H](N)c1ccc(C(=O)Nc2ccnc3[nH]ccc23)cc1 + C=C(c1ccc(C(=O)O)cc1)c1cc2c(cc1C)C(C)(C)CCC2(C)C [Bexarotene] (partner dose 10 µM) | 13.6 |
| CCCCCCCCCCCCCCCCCCOP(=O)([O-])OC1CC[N+](C)(C)CC1 [Perifosine] + Cc1cc(Nc2cc(N3CCN(C)CC3)nc(/C=C/c3ccccc3)n2)n[nH]1 [ENMD2076] (partner dose 0.2 µM) | 86.3 |
| C[C@@H](N)c1ccc(C(=O)Nc2ccnc3[nH]ccc23)cc1 + CN(NC(=O)CC(=O)NN(C)C(=S)c1ccccc1)C(=S)c1ccccc1 [STA4783] (partner dose 0.03 µM) | 57.7 |
| Cn1sc(=O)n(Cc2ccccc2)c1=O + COc1cc(Nc2ncc(F)c(Nc3ccc4c(n3)NC(=O)C(C)(C)O4)n2)cc(OC)c1OC [Tamatinib] (partner dose 2 µM) | 71.6 |
| CCCCCCCCCCCCCCCCCCOP(=O)([O-])OC1CC[N+](C)(C)CC1 [Perifosine] + OCc1c[nH]c2ccccc12 [Indole-3-carbinol] (partner dose 4 µM) | 114 |
| C[C@@H](N)c1ccc(C(=O)Nc2ccnc3[nH]ccc23)cc1 + CS(=O)(=O)CCNCc1ccc(-c2ccc3ncnc(Nc4ccc(OCc5cccc(F)c5)c(Cl)c4)c3c2)o1 [lapatinib] (partner dose 4 µM) | 49.9 |
| Cn1sc(=O)n(Cc2ccccc2)c1=O + O=C(O)c1ccc(-c2c[nH]c3ncc(-c4ccccc4)cc23)cc1C1CCCC1 [GSK650394] (partner dose 0.8 µM) | 76.4 |
| Cn1sc(=O)n(Cc2ccccc2)c1=O + Cn1nnc2c(C(N)=O)ncn2c1=O [temozolomide] (partner dose 10 µM) | 50.5 |
